Part of at least one peptide drawing is inferred or uncertain, most often the ends. Where a SMILES comes first, the peptide text is derived from it. Bridges are numbered along the chain shown (N, C = ends). [ ]: non-standard residue; d: D form. The star is where a group is joined. Phe(4-Cl) = N[C@@H](Cc1ccc(Cl)cc1)C(=O)O; Cit = NC(=O)NCCC[C@H](N)C(=O)O; Agmatine = N=C(N)NCCCCN*; Isobutyryl = CC(C)C(=O)*; Nle = CCCC[C@H](N)C(=O)O; Orn = NCCC[C@H](N)C(=O)O; Abu = CC[C@H](N)C(=O)O; PhAc = O=C(Cc1ccccc1)*
Tested on: GH release induced by 1 nM hGH-RH(1-29)NH2 in superfused rat pituitary cells
Experiment: Inhibition of hGH-RH(1-29)NH2-induced GH release in superfused rat pituitary system
Assay type: cell-based
Conditions: for Inhibition of GH release (%) 0 min: 0 min response; for Inhibition of GH release (%) 30 min: 30 min response; for Inhibition of GH release (%) 60 min: 60 min response; for Inhibition of GH release (%) 90 min: 90 min response; for Inhibition of GH release (%) 120 min: 120 min response
Method: Superfused Rat Pituitary System. The analogues were tested in vitro in a test described earlier (S. Vigh and A. V. Schally, Peptides 5:241-[…], 1984) with modification (Z. Rekasi and A. V. Schally, P. N. A. S. 90:2146-2149, 1993).
Briefly, the cells are preincubated with peptides for 9 minutes (3 mL) at various concentrations. Immediately after the incubation, 1 nM hGH-RH(1-29)NH2 is administered for 3 minutes (1 mL) [0 minute response]. To check the duration of the antagonistic effect of the analogue, 1 nM hGH-RH(1-29)NH2 is applied 30, 60, 90, and 120 minutes later for 3 minutes [30, 60, 90, 120 min responses]. Net integral values of the GH responses are evaluated. GH responses are compared to and expressed as percent of the original GH response induced by 1 nM GH-RH(1-29)NH2. The effect of the new antagonists are compared to that of [Ac-Tyr^1,D-Arg^2 ]hGH-RH(1-29)NH2, the "Standard antagonist".
Growth Hormone Radio-immunoassay. Rat GH levels in aliquots of undiluted and diluted superfusion samples were measured by double-antibody radioimmunoassay using materials supplied by the National Hormone and Pituitary Program, Baltimore, Md. The results of RIA were analyzed with a computer program developed in our institute (V. Csernus and A. V. Schally, Harwood Academic (Greenstein, B. C. ed., London, pp. 71-109, 1991), hereby incorporated by reference. Inter-assay variation was less than 15% and intra-assay variation was less than 10%.

For `CCCC[C@H](NC(=O)[C@@H](NC(=O)[C@H](CC(=O)O)NC(=O)[C@H](CCC(N)=O)NC(=O)[C@H](CC(C)C)NC(=O)[C@H](CC(C)C)NC(=O)[C@H](CCCCN)NC(=O)[C@H](CCCNC(=N)N)NC(=O)[C@H](C)NC(=O)[C@H](CO)NC(=O)[C@H](CC(C)C)NC(=O)[C@H](CCC(N)=O)NC(=O)[C@H](CC)NC(=O)[C@H](CC(C)C)NC(=O)[C@@H](NC(=O)[C@H](CCCCN)NC(=O)[C@H](CCCNC(=N)N)NC(=O)[C@H](Cc1ccc(Cl)cc1)NC(=O)[C@H](CO)NC(=O)[C@H](CC(N)=O)NC(=O)[C@@H](NC(=O)[C@H](Cc1ccc(Cl)cc1)NC(=O)[C@@H](NC(=O)[C@H](C)NC(=O)[C@H](CC(=O)O)NC(=O)[C@@H](CCCNC(=N)N)NC(=O)[C@H](Cc1ccc(O)cc1)NC(=O)C(C)C)[C@@H](C)CC)[C@@H](C)O)C(C)C)[C@@H](C)CC)C(=O)N[C@@H](CO)C(=O)NCCCCNC(=N)N` [Peptide 6, [Ibu^0,D-Arg^2,Phe(pCl)^6,10,Abu^15,Nle^27]hGH-RH(1-28)Agm] (Isobutyryl-Y[dR]DAI[Phe(4-Cl)]TNS[Phe(4-Cl)]RKVL[Abu]QLSARKLLQDI[Nle]S-Agmatine), which “Inhibition of GH release (%) 0 min” value (30 nM peptide) is on record?
Its value is 86.3%.

What about the “Inhibition of GH release (%) 30 min” value (30 nM peptide) of the same molecule?
Its value is 89.9%.

What about the “Inhibition of GH release (%) 60 min” value (30 nM peptide) of the same molecule?
Its value is 78.9%.

And the “Inhibition of GH release (%) 90 min” value (30 nM peptide)?
Its value is 87.6%.

What about the “Inhibition of GH release (%) 120 min” value (30 nM peptide) of the same molecule?
The value was 62.7%.

What does the source list for `CCCC[C@H](NC(=O)[C@@H](NC(=O)[C@H](CC(=O)O)NC(=O)[C@H](CCC(N)=O)NC(=O)[C@H](CC(C)C)NC(=O)[C@H](CC(C)C)NC(=O)[C@H](CCCCN)NC(=O)[C@H](CCCNC(=N)N)NC(=O)[C@H](C)NC(=O)[C@H](CO)NC(=O)[C@H](CC(C)C)NC(=O)[C@H](CCC(N)=O)NC(=O)[C@H](CC)NC(=O)[C@H](CC(C)C)NC(=O)[C@@H](NC(=O)[C@H](CCCCN)NC(=O)[C@H](CCCNC(=N)N)NC(=O)[C@H](Cc1ccc(O)cc1)NC(=O)[C@H](CO)NC(=O)[C@H](CC(N)=O)NC(=O)[C@@H](NC(=O)[C@H](Cc1ccc(Cl)cc1)NC(=O)[C@@H](NC(=O)[C@H](C)NC(=O)[C@H](CC(=O)O)NC(=O)[C@@H](CCCNC(=N)N)NC(=O)[C@H](Cc1ccc(O)cc1)NC(=O)C(C)C)[C@@H](C)CC)[C@@H](C)O)C(C)C)[C@@H](C)CC)C(=O)N[C@@H](CO)C(=O)N[C@@H](CCCNC(N)=O)C(N)=O` [Peptide 1, [Ibu^0,D-Arg^2,Phe(pCl)^6,Abu^15,Nle^27,Cit^29]hGH-RH(1-29)-NH2] (Isobutyryl-Y[dR]DAI[Phe(4-Cl)]TNSYRKVL[Abu]QLSARKLLQDI[Nle]S[Cit]-NH2)?
Inhibition of GH release (%) 0 min (3 nM peptide): 60.1%; Inhibition of GH release (%) 30 min (3 nM peptide): 12.4%; Inhibition of GH release (%) 60 min (3 nM peptide): 11.5%; Inhibition of GH release (%) 0 min (30 nM peptide): 98%; Inhibition of GH release (%) 30 min (30 nM peptide): 49.2%; Inhibition of GH release (%) 60 min (30 nM peptide): 37.6%

`CCCC[C@H](NC(=O)[C@@H](NC(=O)[C@H](CC(=O)O)NC(=O)[C@H](CCC(N)=O)NC(=O)[C@H](CC(C)C)NC(=O)[C@H](CC(C)C)NC(=O)[C@H](CCCCN)NC(=O)[C@H](CCCNC(=N)N)NC(=O)[C@H](C)NC(=O)[C@H](CO)NC(=O)[C@H](CC(C)C)NC(=O)[C@H](CCC(N)=O)NC(=O)[C@H](C)NC(=O)[C@H](CC(C)C)NC(=O)[C@@H](NC(=O)[C@@H]1CCCCNC(=O)CC[C@H](NC(=O)[C@@H](NC(=O)[C@H](Cc2ccc(Cl)cc2)NC(=O)[C@@H](NC(=O)[C@H](C)NC(=O)[C@H](CC(=O)O)NC(=O)[C@@H](CCCNC(=N)N)NC(=O)[C@H](Cc2ccc(O)cc2)NC(=O)Cc2ccccc2)[C@@H](C)CC)[C@@H](C)O)C(=O)N[C@@H](CO)C(=O)N[C@@H](Cc2ccc(O)cc2)C(=O)N[C@@H](CCCNC(=N)N)C(=O)N1)C(C)C)[C@@H](C)CC)C(=O)N[C@@H](CO)C(=O)N[C@@H](CCCNC(=N)N)C(N)=O` [Peptide 17, cyclo^8,12 [PhAc^0,D-Arg^2,Phe(pCl)^6,Glu^8,Ala^15,Nle^27]hGH-RH(1-29)NH2] (PhAc-Y[dR]DAI[Phe(4-Cl)]TESYRKVLAQLSARKLLQDI[Nle]SR-NH2; lactam 8-12) was tested. Which “Inhibition of GH release (%) 0 min” value (30 nM peptide) did it give?
Its value is 87.3%.

And the “Inhibition of GH release (%) 30 min” value (30 nM peptide)?
Its value is 46.4%.

What about the “Inhibition of GH release (%) 60 min” value (30 nM peptide) of the same molecule?
Its value is 10.7%.

And the “Inhibition of GH release (%) 90 min” value (30 nM peptide)?
Its value is 17.4%.

`CCCC[C@H](NC(=O)[C@@H](NC(=O)[C@H](CC(=O)O)NC(=O)[C@H](CCC(N)=O)NC(=O)[C@H](CC(C)C)NC(=O)[C@H](CC(C)C)NC(=O)[C@H](CCCN)NC(=O)[C@H](CCCNC(=N)N)NC(=O)[C@H](C)NC(=O)[C@H](CO)NC(=O)[C@H](CC(C)C)NC(=O)[C@H](CCC(N)=O)NC(=O)[C@H](CC)NC(=O)[C@H](CC(C)C)NC(=O)[C@@H](NC(=O)[C@H](CCCN)NC(=O)[C@H](CCCNC(=N)N)NC(=O)[C@H](Cc1ccc(O)cc1)NC(=O)[C@H](CO)NC(=O)[C@H](CC(N)=O)NC(=O)[C@@H](NC(=O)[C@H](Cc1ccc(Cl)cc1)NC(=O)[C@@H](NC(=O)[C@H](C)NC(=O)[C@H](CC(=O)O)NC(=O)[C@@H](CCCNC(=N)N)NC(=O)[C@H](Cc1ccc(O)cc1)NC(=O)Cc1ccccc1)[C@@H](C)CC)[C@@H](C)O)C(C)C)[C@@H](C)CC)C(=O)N[C@@H](CO)C(=O)NCCCCNC(=N)N` [Peptide 15, [PhAc^0,D-Arg^2,Phe(pCl)^6,Orn^12,21,Abu^15,Nle^27]hGH-RH(1-28)Agm] (PhAc-Y[dR]DAI[Phe(4-Cl)]TNSYR[Orn]VL[Abu]QLSAR[Orn]LLQDI[Nle]S-Agmatine) was tested. Which “Inhibition of GH release (%) 0 min” value (30 nM peptide) did it give?
The value was 85.5%.

What about the “Inhibition of GH release (%) 30 min” value (30 nM peptide) of the same molecule?
The value was 65.2%.

And the “Inhibition of GH release (%) 60 min” value (30 nM peptide)?
The value was 56.1%.

What about the “Inhibition of GH release (%) 90 min” value (30 nM peptide) of the same molecule?
The value was 44.0%.

What about the “Inhibition of GH release (%) 120 min” value (30 nM peptide) of the same molecule?
Its value is 46.7%.

With `CCCC[C@H](NC(=O)[C@@H](NC(=O)[C@H](CC(=O)O)NC(=O)[C@H](CCC(N)=O)NC(=O)[C@H](CC(C)C)NC(=O)[C@H](CC(C)C)NC(=O)[C@H](CCCCN)NC(=O)[C@H](CCCNC(=N)N)NC(=O)[C@H](C)NC(=O)[C@H](CO)NC(=O)[C@H](CC(C)C)NC(=O)[C@H](CCC(N)=O)NC(=O)[C@H](C)NC(=O)[C@H](CC(C)C)NC(=O)[C@@H](NC(=O)[C@@H](CCCCN)NC(=O)[C@H](CCCNC(=N)N)NC(=O)[C@H](Cc1ccc(O)cc1)NC(=O)[C@H](CO)NC(=O)[C@H](CC)NC(=O)[C@@H](NC(=O)[C@H](Cc1ccc(Cl)cc1)NC(=O)[C@@H](NC(=O)[C@H](C)NC(=O)[C@H](CC(=O)O)NC(=O)[C@@H](CCCNC(=N)N)NC(=O)[C@H](Cc1ccc(O)cc1)NC(=O)Cc1ccccc1)[C@@H](C)CC)[C@@H](C)O)C(C)C)[C@@H](C)CC)C(=O)N[C@@H](CO)C(=O)N[C@@H](CCCNC(=N)N)C(N)=O` [Peptide 14, [PhAc^0,D-Arg^2,Phe(pCl)^6,Abu^8,D-Lys^12,Ala^15,Nle^27]hGH-RH(1-29)NH2] (PhAc-Y[dR]DAI[Phe(4-Cl)]T[Abu]SYR[dK]VLAQLSARKLLQDI[Nle]SR-NH2) as the molecule, how does the “Inhibition of GH release (%) 0 min” value (30 nM peptide) read?
The value was 87.0%.

And the “Inhibition of GH release (%) 30 min” value (30 nM peptide)?
Its value is 32.0%.

What about the “Inhibition of GH release (%) 60 min” value (30 nM peptide) of the same molecule?
Its value is 6.0%.

And the “Inhibition of GH release (%) 90 min” value (30 nM peptide)?
Its value is 12.0%.

And the “Inhibition of GH release (%) 120 min” value (30 nM peptide)?
The value was 24.0%.
